Experimental data reported in the supplement of paper PMC11055344.
MIC of nasopharyngeal S. pneumoniae isolates by broth microdilution (range and time not stated); higher = less susceptible. No active / inactive call per row; the paper counts penicillin above 0.06 and amoxicillin above 0.5 mg/L as non-susceptible (EUCAST). The lowest value, 0.01, is taken as the floor ('<='); the source prints it plain. Penicillin G is assumed for 'penicillin'. Isolates are numbered anew. PBP alleles are the type numbers of penicillin-binding proteins 1a, 2b and 2x; equal numbers mean equal sequences.

Legend:
penicillin G = compound: CC1(C)S[C@@H]2[C@H](NC(=O)Cc3ccccc3)C(=O)N2[C@H]1C(=O)O [penicillin G]; experiment: Broth microdilution.
amoxicillin = compound: CC1(C)S[C@@H]2[C@H](NC(=O)[C@H](N)c3ccc(O)cc3)C(=O)N2[C@H]1C(=O)O [amoxicillin]; experiment: Broth microdilution.

| Test System | MIC (penicillin G) [mg/L] | MIC (amoxicillin) [mg/L] |
| --- | --- | --- |
| Streptococcus pneumoniae isolate 1 (PBP alleles 1a 2b 2x: 2_0_6, serotype: 33F) | ≤ 0.01 | ≤ 0.01 |
| Streptococcus pneumoniae isolate 2 (PBP alleles 1a 2b 2x: 2_0_0, serotype: 19F) | 0.03 | ≤ 0.01 |
| Streptococcus pneumoniae isolate 3 (PBP alleles 1a 2b 2x: 0_0_53, serotype: 10A) | 0.03 | ≤ 0.01 |
| Streptococcus pneumoniae isolate 4 (PBP alleles 1a 2b 2x: 2_0_6, serotype: 23A) | ≤ 0.01 | ≤ 0.01 |
| Streptococcus pneumoniae isolate 5 (PBP alleles 1a 2b 2x: 0_0_3, serotype: 35F) | 0.03 | ≤ 0.01 |
| Streptococcus pneumoniae isolate 6 (PBP alleles 1a 2b 2x: 24_27_28, serotype: 15A) | 0.25 | 0.03 |
| Streptococcus pneumoniae isolate 7 (PBP alleles 1a 2b 2x: 2_0_2, serotype: 21) | ≤ 0.01 | ≤ 0.01 |
| Streptococcus pneumoniae isolate 8 (PBP alleles 1a 2b 2x: 2_6_0, serotype: 11A) | 0.03 | ≤ 0.01 |
| Streptococcus pneumoniae isolate 9 (PBP alleles 1a 2b 2x: 1_2_2, serotype: 22F) | ≤ 0.01 | ≤ 0.01 |
| Streptococcus pneumoniae isolate 10 (PBP alleles 1a 2b 2x: 2_0_6, serotype: 23A) | 0.03 | 0.03 |
| Streptococcus pneumoniae isolate 11 (PBP alleles 1a 2b 2x: 2_0_2, serotype: 21) | 0.03 | ≤ 0.01 |
| Streptococcus pneumoniae isolate 12 (PBP alleles 1a 2b 2x: 1_0_0, serotype: 15B/C) | ≤ 0.01 | ≤ 0.01 |
| Streptococcus pneumoniae isolate 13 (PBP alleles 1a 2b 2x: 2_6_0, serotype: 11A) | ≤ 0.01 | ≤ 0.01 |
| Streptococcus pneumoniae isolate 14 (PBP alleles 1a 2b 2x: 1_0_0, serotype: 15A) | 0.03 | 0.03 |
| Streptococcus pneumoniae isolate 15 (PBP alleles 1a 2b 2x: 78_0_0, serotype: Serogroup 24) | ≤ 0.01 | ≤ 0.01 |
| Streptococcus pneumoniae isolate 16 (PBP alleles 1a 2b 2x: 2_0_3, serotype: 7C) | ≤ 0.01 | ≤ 0.01 |
| Streptococcus pneumoniae isolate 17 (PBP alleles 1a 2b 2x: 1_0_0, serotype: 15A) | ≤ 0.01 | ≤ 0.01 |
| Streptococcus pneumoniae isolate 18 (PBP alleles 1a 2b 2x: 2_3_2, serotype: 3) | 0.03 | 0.06 |
| Streptococcus pneumoniae isolate 19 (PBP alleles 1a 2b 2x: 23_4_77, serotype: 12F) | 0.06 | 0.03 |
| Streptococcus pneumoniae isolate 20 (PBP alleles 1a 2b 2x: 12_0_0, serotype: 31) | 0.03 | ≤ 0.01 |

| Test System | MIC (penicillin G) [mg/L] | MIC (amoxicillin) [mg/L] |
| --- | --- | --- |
| Streptococcus pneumoniae isolate 21 (PBP alleles 1a 2b 2x: 1_0_0, serotype: 15A) | 0.03 | ≤ 0.01 |
| Streptococcus pneumoniae isolate 22 (PBP alleles 1a 2b 2x: 2_0_3, serotype: 7C) | ≤ 0.01 | ≤ 0.01 |
| Streptococcus pneumoniae isolate 23 (PBP alleles 1a 2b 2x: 0_0_2, serotype: 35D) | ≤ 0.01 | ≤ 0.01 |
| Streptococcus pneumoniae isolate 24 (PBP alleles 1a 2b 2x: 2_0_6, serotype: 33F) | ≤ 0.01 | ≤ 0.01 |
| Streptococcus pneumoniae isolate 25 (PBP alleles 1a 2b 2x: 0_0_0, serotype: 15B/C) | 0.03 | ≤ 0.01 |
| Streptococcus pneumoniae isolate 26 (PBP alleles 1a 2b 2x: 2_0_2, serotype: 15B/C) | 0.03 | 0.03 |
| Streptococcus pneumoniae isolate 27 (PBP alleles 1a 2b 2x: 0_0_2, serotype: 35B) | 0.03 | ≤ 0.01 |
| Streptococcus pneumoniae isolate 28 (PBP alleles 1a 2b 2x: 2_0_6, serotype: 23A) | 0.03 | 0.03 |
| Streptococcus pneumoniae isolate 29 (PBP alleles 1a 2b 2x: 0_0_0, serotype: 15B/C) | 0.03 | ≤ 0.01 |
| Streptococcus pneumoniae isolate 30 (PBP alleles 1a 2b 2x: 2_0_2, serotype: 21) | ≤ 0.01 | ≤ 0.01 |
| Streptococcus pneumoniae isolate 31 (PBP alleles 1a 2b 2x: 86_82_162, serotype: Non-typeable/NCC2a) | ≤ 0.01 | ≤ 0.01 |
| Streptococcus pneumoniae isolate 32 (PBP alleles 1a 2b 2x: 0_0_0, serotype: 15B/C) | 0.03 | ≤ 0.01 |
| Streptococcus pneumoniae isolate 33 (PBP alleles 1a 2b 2x: 2_0_0, serotype: 19F) | 0.03 | ≤ 0.01 |
| Streptococcus pneumoniae isolate 34 (PBP alleles 1a 2b 2x: 12_0_0, serotype: 31) | ≤ 0.01 | ≤ 0.01 |
| Streptococcus pneumoniae isolate 35 (PBP alleles 1a 2b 2x: 78_0_0, serotype: Serogroup 24) | 0.03 | ≤ 0.01 |
| Streptococcus pneumoniae isolate 36 (PBP alleles 1a 2b 2x: 1_0_0, serotype: 15A) | ≤ 0.01 | ≤ 0.01 |
| Streptococcus pneumoniae isolate 37 (PBP alleles 1a 2b 2x: 3_6_5, serotype: 8) | 0.03 | ≤ 0.01 |
| Streptococcus pneumoniae isolate 38 (PBP alleles 1a 2b 2x: 1_0_187, serotype: 19A) | 0.03 | ≤ 0.01 |
| Streptococcus pneumoniae isolate 39 (PBP alleles 1a 2b 2x: 23_27_77, serotype: 12F) | 0.125 | 0.125 |
| Streptococcus pneumoniae isolate 40 (PBP alleles 1a 2b 2x: 0_0_2, serotype: 10A) | 0.03 | ≤ 0.01 |

| Test System | MIC (penicillin G) [mg/L] | MIC (amoxicillin) [mg/L] |
| --- | --- | --- |
| Streptococcus pneumoniae isolate 41 (PBP alleles 1a 2b 2x: 2_0_0, serotype: 17F) | ≤ 0.01 | ≤ 0.01 |
| Streptococcus pneumoniae isolate 42 (PBP alleles 1a 2b 2x: 1_0_0, serotype: 15B/C) | 0.03 | ≤ 0.01 |
| Streptococcus pneumoniae isolate 43 (PBP alleles 1a 2b 2x: 2_6_10, serotype: 11A) | ≤ 0.01 | ≤ 0.01 |
| Streptococcus pneumoniae isolate 44 (PBP alleles 1a 2b 2x: 2_6_0, serotype: 11A) | 0.03 | ≤ 0.01 |
| Streptococcus pneumoniae isolate 45 (PBP alleles 1a 2b 2x: 2_0_6, serotype: 33F) | 0.03 | ≤ 0.01 |
| Streptococcus pneumoniae isolate 46 (PBP alleles 1a 2b 2x: 0_0_0, serotype: 34) | 0.03 | 0.03 |
| Streptococcus pneumoniae isolate 47 (PBP alleles 1a 2b 2x: 2_New_2, serotype: 21) | 0.03 | ≤ 0.01 |
| Streptococcus pneumoniae isolate 48 (PBP alleles 1a 2b 2x: 1_0_0, serotype: 15A) | 0.03 | ≤ 0.01 |
| Streptococcus pneumoniae isolate 49 (PBP alleles 1a 2b 2x: 3_6_5, serotype: 8) | 0.03 | 0.03 |
| Streptococcus pneumoniae isolate 50 (PBP alleles 1a 2b 2x: 7_1_1, serotype: 23B1) | 0.25 | 0.06 |
| Streptococcus pneumoniae isolate 51 (PBP alleles 1a 2b 2x: 2_0_3, serotype: 7C) | 0.03 | 0.03 |
| Streptococcus pneumoniae isolate 52 (PBP alleles 1a 2b 2x: 0_0_2, serotype: 35B) | 0.03 | 0.03 |
| Streptococcus pneumoniae isolate 53 (PBP alleles 1a 2b 2x: 1_2_2, serotype: 22F) | 0.03 | ≤ 0.01 |
| Streptococcus pneumoniae isolate 54 (PBP alleles 1a 2b 2x: 1_0_0, serotype: 15A) | 0.03 | ≤ 0.01 |
| Streptococcus pneumoniae isolate 55 (PBP alleles 1a 2b 2x: 1_0_187, serotype: 19A) | ≤ 0.01 | ≤ 0.01 |
| Streptococcus pneumoniae isolate 56 (PBP alleles 1a 2b 2x: 2_6_0, serotype: 11A) | ≤ 0.01 | ≤ 0.01 |
| Streptococcus pneumoniae isolate 57 (PBP alleles 1a 2b 2x: 0_0_0, serotype: 15B/C) | 0.03 | 0.03 |
| Streptococcus pneumoniae isolate 58 (PBP alleles 1a 2b 2x: 2_4_0, serotype: 38) | 0.03 | 0.03 |
| Streptococcus pneumoniae isolate 59 (PBP alleles 1a 2b 2x: 2_4_0, serotype: 38) | 0.03 | 0.03 |
